Laboratory results taken from the RNAGym collection of RNA variant scans (doi:10.7554/elife.90254).
Read counts are not given, so values of variants with three or more changes are uncertain.

B1: OR4K15 (parent)
chain: GUUAACGGUCAUAGGCCAUGGAAACUAGGAGCACCAUUUCGCUGCCAGUGAAGAAAUGAACAAAGAAAAUCUGGGCCAGGCAGGCAUCAAAAGAAAUAGUCUUGCGCUCAACCAGAAAGUCUGUAAUCAUUUUAAGGGUA

Variants of: B1
Assay: self-cleavage, relative activity (ratio to wild type); higher = more cleavage; in vitro, sequencing; the parent is a self-cleaving ribozyme

Variant	self-cleavage
A18G A23G U37C A59G A118U U120C	0.1
A13U A47G A60G U72C A114C	0.04
A13U A54G A111U	0.22
G15A U72C A82G	0.14
G15U A27G G74A A140G	0.26
G14U A23C U97C U122C	0.98
C16A U70C A86G U122C	0.07
A13G A33G U43A U72G	0.46
G15A A23G U108C U130C	0.03
G14A A54G A59G A118G	1.09
A13G A78U A116G U132C	0
A18G A62G A64G U72A A94U U131C	0.17
A18G A30G A56G	0.95
A13G A30G A67G A96G A118G	0.97
G15A U19C U49A U87C A135G	1.28
G15A A54G A62G U127C	0.76
G14A U37C A110G A135G	0.09
C16U U72A U132C	0.46
G14A A59G A69G C71U A118G	0.05
A18G A59G A125G	0.73
A13G U38A A91U U124C	0.44

Variant	self-cleavage
A13U A47G G73U U103C A117G	0.05
G14A A96G U103A	0.85
A18G A22G A56U	0.57
A18G A52G A94U A116U	0.57
C16U A22G U72C A86G C105A A118G	0
A18G A24U U132C	1.52
A18G A30G A90G U124A U131C	0.65
A18G A55G A118G	1.25
C17U U38C U49C A66U A68G A78U U97G	0.12
A18G A24G A54G U57C A68G A129G	0.44
A18G A56G U57C A95G U127C U139A	1.81
A13G U72C C109U	0.37
A13G U26C A89U U97C	0.98
G15A A51U U103C	0.17
A13G U70C C107A A111U	0.04
A18G A24G A30G A36U A55C U124C	0.49
A13U C35U A111G	0.01
A18G A23G A51G U72C	0.16
A13U U57A A63G A117U	0.12
G15U A68G A82C C105U	0.02
A18G A30U U122C	1.21

Variant	self-cleavage
A13G A60G A67G	0
A18G A24G U124C	0.48
C16U U19C A56G A116G	1.24
A13G A91G A116G	1
C17A U39C U49C A51G A66G U70C A90G A111G	0
A18G A30G U43G U127C	1.1
A13G A30G U37C A47U A82G U122C A126G	0.22
A13G G21A U37C U102C A114G	1.14
A13G A47G U102C	1.24
G15A A22G A96G U100A U132A	0.38
G14A A24U A51U	1.34
C17U A66G A94G	0.8
A13U A68G A118G	0.53
A18C U37C A111U	0.05
G14A A23G A24G U72G A89U U132C	0.13
A13G A52G A64U A68G A89G G104A	0.09
C16U G83A U122C	0.97
A13U A36U U70C	0.76
A13G A66C A110G U120C	0.19
A18G A47C U70C C88U A110G	0.13
G15C U108A U122C	0.01

Variant	self-cleavage
A13G A67G A92U	1.28
G14A A60G A68G A82U U130C	0.07
A18C U49C A82G	0.48
G15A A60G U133A	0.51
A18C A60G A63G A78C A94G A117G	0.11
A18G A62U U122C A134G	0.67
G14A U49C A114G	0.21
C17U A27G A55G U72A A111G	0.02
A13G U131C U132C	0.37
A18G A51G A140C	1.56
A13U A59G U103C	1.11
A13C A18U A22G A36G A55G A63G A118G U130C	0.7
U12G U100C U102A	1.98
A13G U43A U87A A89U	1.12
A13G A27U A33G U87A	0.66
A13G A52G U57C	0.43
A13U A22G A47C A92G A116U	0.9
A18G A52G A89G	1.25
C17U U49G A55G A56G	0.86
G15A A82G A116G	0.21
A13U A22G A24G A67G U87C U130C	0.72
